Laboratory results: the supplement of paper PMC4604168 (melanoma cell lines)
The list shows a part of the results. Repeats are few or missing, and single values can be far off.

How the values were obtained:
Experiment in all cases: cell count relative to DMSO control; melanoma cells; higher = more viable cells
Conditions in all cases: library dose: standard library concentration; 72 h
A101D = tested on: A101D
A2058 = tested on: A2058
A375 = tested on: A375
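Further: cells treated in 1,536-well plates, then fixed and DAPI-stained, with nuclei counted from automated high-throughput microscope images.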

Row | Structure (SMILES) | cell count (A101D) [%] | cell count (A2058) [%] | cell count (A375) [%]
1 | N.N.[Cl][Pt][Cl] [cisplatin] + OCc1c[nH]c2ccccc12 [Indole-3-carbinol] (first compound 8 µM, partner dose 4 µM) | 72.9 | 114 | 93.4
2 | C[C@]12O[C@H](C[C@]1(O)CO)n1c3ccccc3c3c4c(c5c6ccccc6n2c5c31)CNC4=O [Lestaurtinib] + CC(=O)O[C@@]12CO[C@@H]1C[C@H](O)[C@@]1(C)C(=O)[C@H](O)C3=C(C)[C@@H](OC(=O)[C@H](O)[C@@H](NC(=O)OC(C)(C)C)c4ccccc4)C[C@@](O)([C@@H](OC(=O)c4ccccc4)[C@H]21)C3(C)C [Docetaxel] (first compound 0.02 µM, partner dose 0.0005 µM) | 49.2 | 7.37 | 82.2
3 | Cn1cc(C2=C(c3cn(C4CCN(Cc5ccccn5)CC4)c4ccccc34)C(=O)NC2=O)c2ccccc21 [Enzastaurin] + OCc1c[nH]c2ccccc12 [Indole-3-carbinol] (first compound 4 µM, partner dose 4 µM) | 108 | 112 | 102
4 | Cn1cc(C2=C(c3cn(C4CCN(Cc5ccccn5)CC4)c4ccccc34)C(=O)NC2=O)c2ccccc21 [Enzastaurin] + CC1(C)NC(=O)N(c2ccc([N+](=O)[O-])c(C(F)(F)F)c2)C1=O [nilutamide] (first compound 4 µM, partner dose 5 µM) | 58.4 | 99.2 | 102
5 | C[C@]12O[C@H](C[C@]1(O)CO)n1c3ccccc3c3c4c(c5c6ccccc6n2c5c31)CNC4=O [Lestaurtinib] + Cn1c(Nc2ccc(C(F)(F)F)cc2)nc2cc(Oc3ccnc(-c4ncc(C(F)(F)F)[nH]4)c3)ccc21 [CHIR265] (first compound 0.02 µM, partner dose 0.4 µM) | 59.2 | 101 | 90.5
